In all, about 33,000 sequences were measured (“E-score (-0.5 to 0.5)”: median about -0.035, highest 2% from about 0.34 on). The list shows a part of the results.
Molecular target: T1, Mot3 (UniProt P54785)
T1 sequence: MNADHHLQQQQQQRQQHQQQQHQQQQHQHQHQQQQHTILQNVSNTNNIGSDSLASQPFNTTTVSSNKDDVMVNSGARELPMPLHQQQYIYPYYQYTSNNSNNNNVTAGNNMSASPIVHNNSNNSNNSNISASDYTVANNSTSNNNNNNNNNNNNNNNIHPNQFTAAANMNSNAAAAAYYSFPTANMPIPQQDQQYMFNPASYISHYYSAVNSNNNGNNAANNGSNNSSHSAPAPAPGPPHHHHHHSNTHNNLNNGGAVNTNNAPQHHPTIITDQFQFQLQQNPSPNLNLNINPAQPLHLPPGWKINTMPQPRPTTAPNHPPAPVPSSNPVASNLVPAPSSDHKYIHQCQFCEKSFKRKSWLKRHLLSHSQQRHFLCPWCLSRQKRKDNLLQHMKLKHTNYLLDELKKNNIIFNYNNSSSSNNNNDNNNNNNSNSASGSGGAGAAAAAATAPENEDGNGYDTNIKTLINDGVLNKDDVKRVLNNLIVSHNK
Test: PBM E-score (8-mer binding enrichment) (E-score (-0.5 to 0.5)); higher = stronger / more preferred TF binding; most listed sequences are background and not binding sites
Conditions: protein concentration: 200 nM; construct: GST-full length
Outline: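 PURExpress in vitro transcription/translation supplied GST-tagged yeast transcription factors, either full-length or DNA-binding domain. Applied at about 100-200 nM to universal all-10-mer Agilent arrays double-stranded by primer extension, the bound protein was detected with fluorescent anti-GST. E-scores, modified Wilcoxon-Mann-Whitney statistics, were given by the Universal PBM Analysis Suite to ungapped eight-base words pooled with their reverse complements after masliner normalisation.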

Row | Sequence | PBM E-score
1 | ACCTCGCT | -0.145
2 | AGTCGAAG | -0.0551
3 | ATACCCGC | 0.101
4 | CTACGGGA | -0.181
5 | CACATATA | 0.267
6 | TGAAGTCA | 0.0305
7 | CATTGATA | -0.0188
8 | ACAGACGT | 0.119
9 | GCCACCCC | -0.216
10 | CATGAACA | 0.129
11 | AATTCTCC | -0.136
12 | GCCTATTA | 0.334
13 | CACGACAG | 0.0178
14 | CCCTGGAC | -0.23
15 | ACCGGAAT | -0.179
16 | CAAATGAG | 0.0295
17 | GAACGGAA | -0.18
18 | GATAGAGA | -0.0576
19 | CGTTAGAC | -0.123
20 | ATTCGCAC | -0.134
21 | AGGCCGCG | -0.0446
22 | CAAACTCG | -0.221
23 | AGTATGAG | -0.0106
24 | AATGGTTG | 0.0245
25 | CGGATGCC | 0.174

Row | Sequence | PBM E-score
26 | AATATTGG | -0.0788
27 | AAAACGAA | 0.181
28 | AGCCCGTC | -0.229
29 | CGTGACCA | -0.223
30 | GCCTAGCC | -0.0436
31 | AAGAGGCG | -0.057
32 | AGAGCCAC | -0.292
33 | AAGCACTT | -0.0943
34 | CTGTAGGA | 0.134
35 | AGCATTGA | -0.145
36 | AGGGAGCA | -0.371
37 | TTCGTAAA | 0.125
38 | ACACAACT | 0.248
39 | AGCTCATA | -0.0474
40 | CGGTAACA | 0.21
41 | CCTAGATA | -0.143
42 | AATAGTCG | -0.235
43 | GCGAGCCC | -0.201
44 | GCCCGTGA | -0.15
45 | CAATAGTC | -0.206
46 | AAAACGTT | 0.032
47 | ACCGGATA | 0.0428
48 | AAGGTATT | 0.16
49 | CCCATGAC | -0.167
50 | GTGCGGGA | -0.252

Row | Sequence | PBM E-score
51 | ACGCGCCT | 0.299
52 | CAAATAAA | -0.00982
53 | AAGCGGTG | -0.0951
54 | CCTCAAGC | -0.229
55 | GGCAGGCA | 0.481
56 | GTGGACTA | -0.0845
57 | GTGATCAA | -0.0663
58 | AGTGCGCG | -0.188
59 | CCGCACGA | -0.183
60 | ATAGCACG | -0.00445
61 | ATGTTACC | 0.237
62 | CTAATGAG | -0.0831
63 | AAGTCGAT | -0.224
64 | CAGAAAAG | -0.0566
65 | AAATCTCC | -0.264
66 | CTGAATAC | 0.105
67 | TCATGCAA | 0.0365
68 | AGCGATAC | -0.117
69 | CAGATAGG | 0.069
70 | CCCCCTAG | -0.371
71 | AACTGTTC | 0.00203
72 | ACGCGCAG | -0.0527
73 | GAAATCGC | -0.241
74 | CCACACTA | -0.135
75 | CCTATGTC | 0.172

Row | Sequence | PBM E-score
76 | AGCCCCAA | -0.215
77 | GATACCCC | -0.294
78 | ACTCATCT | 0.028
79 | CTGGAGAA | -0.16
80 | CAATTCGG | 0.0113
81 | AATCCAGC | -0.198
82 | GTCCGAGA | -0.0515
83 | AAGGGGAT | 0.021
84 | ATATTCGC | 0.0219
85 | CAAAGTTG | -0.0227
86 | AAGAACAT | 0.229
87 | CACATCGA | 0.0533
88 | AACTCACT | -0.0304
89 | CATTGGCA | 0.0852
90 | AGTCTTGG | -0.0823
91 | GGCCAAAC | -0.214
92 | CGGCTAGC | -0.229
93 | TCCCCGCA | -0.125
94 | GAGGGCCC | -0.321
95 | AAGCGCCT | 0.0724
96 | GCATTGGC | -0.0872
97 | TAGGCATA | 0.28
98 | CGAATTTA | 0.144
99 | ACCCCTGC | -0.197
100 | GCAATGTA | 0.249

Row | Sequence | PBM E-score
101 | CACTTTGA | -0.208
102 | TGGTACAA | 0.0168
103 | ACTAATCC | -0.0354
104 | CGGGAGGC | -0.163
105 | ATTGGATC | -0.235
106 | CTGAGTTA | -0.0326
107 | AACCGCGG | -0.171
108 | GCCTGCCC | 0.073
109 | TATTATGA | 0.0627
110 | CCTACAAC | 0.194
111 | GCACGTCA | 0.0204
112 | ATTTGTAG | 0.0961
113 | GCCACACC | -0.193
114 | ATCACGTA | 0.226
115 | AGGGTGGG | -0.14
116 | ACGCGTGC | 0.291
117 | ACCAAAGC | -0.044
118 | AGCCAACA | 0.0235
119 | AGAGCGAT | -0.161
120 | ATCTCAGG | 0.0363
121 | AGCCGGCA | -0.286
122 | ATGATTTG | -0.025
123 | CATGTTAG | 0.332
124 | TAATCCGA | -0.0977
125 | CTTAAAAG | -0.0735

Row | Sequence | PBM E-score
126 | CGAGATAG | -0.256
127 | ACAAGATG | 0.134
128 | ATTCGCAG | 0.0372
129 | ACAAGGAG | 0.175
130 | AAGTTAGA | 0.128
131 | AACGGCTG | -0.304
132 | AAATTGGC | -0.118
133 | AAGCCACG | -0.0353
134 | AGCGCGAG | -0.184
135 | CCATACAC | -0.067
136 | ACCTGTAA | 0.275
137 | CCCAGTAA | 0.0177
138 | TCGAAGAA | -0.00988
139 | ACAGAAAT | 0.0316
140 | ACATCGAG | 0.0644
141 | TTGTAAAA | 0.321
142 | GCGTTAAC | 0.265
143 | CTTTATGC | 0.0187
144 | ACTATCTG | -0.237
145 | AAGTGCAT | 0.204
146 | CCCTCCAA | -0.308
147 | ACCAGAAA | -0.0509
148 | AGGCTCAT | 0.22
149 | AAGCCCGA | -0.157
150 | AATAAGAC | 0.0558

Row | Sequence | PBM E-score
151 | CGTCTAGC | -0.0211
152 | CCCGCCTA | 0.0235
153 | GGATTAAC | 0.112
154 | ACACAATC | 0.245
155 | ATCGACCA | -0.099
156 | CGAGAATC | -0.172
157 | CAGACGGG | -0.277
158 | AGGATTGC | -0.0652
159 | AAATCCCG | -0.246
160 | TGATTGCA | 0.115
161 | ACCCGCAC | -0.259
162 | CAGGGATC | -0.258
163 | GACAAATA | 0.123
164 | AGGACTCG | -0.159
165 | CCCCACGC | -0.26
166 | ATGAGCCA | -0.168
167 | CGCCGCTC | -0.205
168 | ATGATATC | -0.149
169 | ATCGGCTC | -0.0503
170 | ACTTCGAG | 0.0127
171 | GGTGCCAA | -0.14
172 | ACACTTGG | -0.0239

From the supplement of paper PMC3334620
